Results taken from PubChem BioAssay AID2100 (National Center for Advancing Translational Sciences (NCATS), 2009).
Where “and” joins values, the source holds several entries; their conditions need not be identical. Identical values can stand only once. The whole screen tested about 300,000 compounds, of which about 1,200 (0.4%) were called active. This list was built around the results that the source calls inconclusive (neither active nor inactive); the mix of calls is not that of the screen. Calls follow the shape of the dose curve; as a rule, active = well fitted inhibition curve with a large enough effect; inconclusive = small, poorly fitted or top-dose-only effect, or another doubt; inactive = no such curve, though single readings can be large or run the other way. Potencies of inconclusive entries are doubtful fits and often do not repeat.

Target: Lysosomal alpha-glucosidase (Homo sapiens) (UniProt P10253)
Assay: qHTS Assay for Inhibitors and Activators of Human alpha-Glucosidase Cleavage of Glycogen;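 as to activity change, negative = inhibition: 0% = full enzyme reaction and -100% = no-enzyme basal signal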
Conditions: recombinant GAA, glycogen substrate, Amplex Red glucose oxidase fluorescence; activity change, negative = inhibition: at 76.4 µM (top of the series) unless noted
How it was run: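 Natural-substrate format: glycogen cleavage by 4 nM human enzyme, glucose read by Amplex Red coupling (Ex 573, Em 610 nm). Normalized to enzyme and no-enzyme controls.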
Potency is read from the fitted curve at half-maximal effect.

| SMILES | Potency | activity change, negative = inhibition |
| --- | --- | --- |
| CC(C)(C)C(=O)NC(=S)Nc1ccccc1N1CCCC1 | inconclusive: 25.1 µM [inhibitor, partial curve] |  |
| C/C(=N\NC(=O)C1=NNC(=O)C1C)c1cccs1 (stereo not given) | inconclusive: 25.1 µM [inhibitor, partial curve] |  |
| O=C1OCC=C1NNC(=O)c1cccnc1 | inconclusive: 6.26 µM [inhibitor, partial curve] |  |
| COc1ccc(-c2cc3nc(C)c(CCC(=O)NCc4ccccc4Cl)c(C)n3n2)c(OC)c1 | inconclusive: 11.2 µM [inhibitor, single point] |  |
| O=c1[nH][nH]c(-c2ccccc2O)c1C(C[N+](=O)[O-])c1ccc(Cl)cc1Cl (stereo not given) | inconclusive: 10 µM [inhibitor, partial curve] |  |
| COc1ccc(C)cc1NC(=O)CN(C)S(=O)(=O)c1ccc2c(c1)c(=O)n(C)c(=O)n2C | inconclusive: 50.1 µM [inhibitor, single point] |  |
| Cc1cc(C)c[n+](CC(=O)c2ccc(-c3ccccc3)cc2)c1 |  | inactive: -3.56% |
| Cc1nc(NC(=O)CC(C)C)sc1-c1csc(Nc2ccc(Cl)cc2Cl)n1 | inconclusive: 15.7 µM [inhibitor, single point] |  |
| CC(C)(Cc1ccc(O)cc1)NC(=O)CC(=O)N=Nc1c(O)[nH]c2cc(Br)ccc12 |  | inactive: 11.6% |
| Cc1ccc(CNC(=O)CCCCCn2c(=O)c3sccc3n(CC(=O)N3CCCCC3C)c2=O)cc1 (stereo not given) |  | inactive: -3.58% [at 76.3 µM] |
| Nc1ccc2nc(-c3ccc(N)c(Cl)c3)[nH]c2c1 | inconclusive: 50.1 µM [inhibitor, single point] |  |
| CN(C)C(CNC(=O)c1ccc2ccccc2n1)c1ccccc1 (stereo not given) | inconclusive: 35.5 µM [inhibitor, single point] |  |
| Cc1c(CC(=O)NCCc2ccccc2)c(=O)oc2c(C)c3occ(C(C)(C)C)c3cc12 |  | inactive: -22.6% [at 76.3 µM] |
| O=c1[nH]cnc2c1N=C(c1cccc([N+](=O)[O-])c1)CC(c1ccccc1)N2 (stereo not given) | inconclusive: 28.2 µM [inhibitor, single point] |  |
| O=C(NC1CCCCC1)c1ccc(CSc2nc3cccnc3n2Cc2ccccc2)cc1 | inconclusive: 8.91 µM [inhibitor, partial curve] |  |
| CCC(=O)Oc1c(Sc2ccc(C)cc2)c(C)nn1-c1ccccc1 | inconclusive: 20 µM [inhibitor, single point] |  |
| O=C(CCCN1C(=O)c2cccc3cccc(c23)C1=O)N1CCN(Cc2ccc3c(c2)OCO3)CC1 |  | inconclusive: 26.5% [activator] |
| CN(C)c1ccc(C(C#N)c2ccccc2)nn1 (stereo not given) | inconclusive: 28.2 µM [inhibitor, partial curve] |  |
| Cc1ccc(CSC2=Nc3ccccc3C3=NC(=O)CN23)cc1 | inconclusive: 20 µM [inhibitor, single point] |  |
| Cc1ccc(-c2nc3cccc(C)n3c2Nc2ccc3c(c2)OCO3)o1 | active: 1.78 µM |  |
| Fc1ccc(-c2nc3n(n2)Cc2ccccc2-3)cc1 |  | inactive: 4.32% |
| CC(=O)NC(c1ccc(Cl)cc1)c1c(O)ccc2ccc(O)cc12 (stereo not given) | inconclusive: 17.8 µM [inhibitor, partial curve] |  |
| COC(=O)c1ccccc1NC(=O)c1ccc2c(c1)CCN2S(=O)(=O)c1ccc(Cl)cc1 |  | inactive: 19.4% [at 76.3 µM] |
| O=c1[nH][nH]c2c(N=Cc3ccccc3O)ccc(F)c12 |  | inactive: -13.9% |

| SMILES | Potency | activity change, negative = inhibition |
| --- | --- | --- |
| CCOc1ccc2c(c1)c(=O)c(C(=O)c1ccc(CC)cc1)cn2CC(=O)Nc1cccc(Cl)c1 |  | inactive: -1.54% [at 76.3 µM] |
| COc1ccccc1S(=O)(=O)Cc1ccc(C(=O)N2CCN(c3cc(Cl)ccc3C)CC2)o1 |  | inactive: 8.69% [at 76.3 µM] |
| Cc1ccc(NCC(=O)N/N=C/c2cccn2C)cc1 | inconclusive: 2.22 µM [inhibitor, full curve] |  |
| C/C(CC(=O)NC12CC3CC(CC(C3)C1)C2)=N\NC(=O)c1cnccn1 | inconclusive: 3.95 µM [inhibitor, single point] |  |
| Cc1nc2cc(-c3cccc(F)c3)nn2c(C)c1CCC(=O)Nc1ccccc1C(N)=O |  | inactive: -2.97% [at 76.3 µM] |
| O=C1CC(N(O)C2CC(=O)N(Cc3ccccc3)C2=O)C(=O)N1Cc1ccccc1 (stereo not given) | inconclusive: 28 µM [inhibitor, partial curve] |  |
| CCCN(CCC)C(=O)CC(c1ccccc1)c1cc(C)ccc1O (stereo not given) | inconclusive: 14.1 µM [inhibitor, partial curve] |  |
| COc1cc2c(cc1OC)[C@@H]1O[C@](c3ccsc3)(C2)Oc2cc(C)n(-c3ccccc3)c(=O)c21 |  | inactive: 0.687% [at 15.3 µM] |
| COc1ccc(-c2cn3cc(C)ccc3n2)cc1F |  | inactive: -0.109% |
| COC(=O)c1ccccc1NC(=O)CNc1cc(OC)c(OC)cc1C | inconclusive: 17.6 µM [inhibitor, partial curve] |  |
| COc1cccc(/C=C/C(=O)OCC(=O)Nc2ccc(S(=O)(=O)N3CCCC3)cc2)c1 | inconclusive: 50.1 µM [inhibitor, single point] |  |
| COc1cccc(NC(=S)NNC(=O)C(C)n2nc(C)c([N+](=O)[O-])c2C)c1 (stereo not given) | active: 10 µM |  |
| O=c1[nH]c(CN2CCN(c3ccccc3)CC2)nc2scc(-c3ccccc3)c12 |  | inactive: -1.44% |
| CCCc1cc(N2CCN(c3ccccc3F)CC2)n2cnnc2n1 |  | inactive: -11.1% [at 76.3 µM] |
| Cc1ccccc1Nc1c(-c2ccc(N3CCOCC3)cc2)nc2cccc(C)n12 | inconclusive: 4.47 µM [inhibitor, full curve] |  |
| Cc1ccccc1C(=O)Nc1ccc(N2CCCCCC2)cc1 | inconclusive: 28.2 µM [inhibitor, partial curve] |  |
| COc1ccc(-c2csc(NC(=O)C3CC(=O)N(c4ccc5c(c4)OCCO5)C3)n2)cc1 (stereo not given) |  | inactive: -1.41% |
| C/C(=N\NC(=O)Cc1ccc(Cl)cc1)c1ccccn1 | inconclusive: 1.58 µM [inhibitor, full curve] |  |
| Cc1nc(N)nc(SCc2ccc([N+](=O)[O-])cc2)c1N | inconclusive: 39.5 µM [inhibitor, single point] |  |
| Nc1nc(NC(=O)c2ccccc2Cl)nn1-c1ccccc1 |  | inactive: 1.55% |
| Cc1ccc(C)c(S(=O)(=O)Nc2ccc(O)c(Sc3ncn[nH]3)c2)c1 | inconclusive: 10 µM [inhibitor, partial curve] |  |
| Cc1cccc(C)c1Nc1c(-c2ccccn2)nc2ccc(Cl)cn12 | inconclusive: 10 µM [inhibitor, partial curve] |  |
| COc1cccc(/C=N/n2c(-c3cc(C)[nH]n3)n[nH]c2=S)c1O | inconclusive: 9.92 µM [inhibitor, partial curve] |  |
| Cc1nn2c3c(cnc2c1-c1ccc(F)cc1)C(=O)CC(c1ccccc1)C3 (stereo not given) |  | inactive: -5.77% [at 76.3 µM] |

| SMILES | Potency | activity change, negative = inhibition |
| --- | --- | --- |
| COc1cc(N2CN=c3s/c(=C\c4ccccn4)c(=O)n3C2)cc(OC)c1OC | inconclusive: 28 µM [inhibitor, single point] |  |
| Cn1c(=O)[nH]c(=O)c2c1nc(Br)n2C/C=N/Nc1ccccc1 | inconclusive: 5.01 µM [inhibitor, full curve] |  |
| CCCCOc1ccc(OC(=O)Nc2cc(Cl)ccc2OC)cc1 | inconclusive: 11.2 µM [inhibitor, partial curve] |  |
| Nc1[nH][nH]c(=O)c1N=Nc1ccc2c(c1)OCO2 | inconclusive: 20 µM [inhibitor, partial curve] |  |
| Brc1ccc(-c2csc(NNC3=NCCCCC3)n2)cc1 | inconclusive: 22.2 µM [inhibitor, single point] |  |
| Cc1csc(Nc2ccccc2)n1 | inconclusive: 44.7 µM [inhibitor, single point] |  |
| CCOC(=O)c1sc(NC(=O)C(CC)Sc2nnc3c4ccccc4n(C(C)C)c3n2)nc1C (stereo not given) | inconclusive: 31.6 µM [inhibitor, partial curve, poor fit] |  |
| Cc1ccc(-c2c[nH]c(=S)n2-c2ccccc2F)cc1 | inconclusive: 35.5 µM [inhibitor, partial curve] |  |
| CC1=NNC(=O)C1CCC(=O)N/N=C/c1ccco1 (stereo not given) | inconclusive: 11.2 µM [inhibitor, partial curve] |  |
| COc1cc(/C(C)=N/NC(=O)CSc2nc3ccccc3[nH]2)ccc1O | inconclusive: 35.5 µM [inhibitor, single point] |  |
| CCOC(=O)c1c(/N=C/N(C)C)sc(/C=N/Nc2ccccc2)c1-c1ccccc1Cl | inconclusive: 8.91 µM [inhibitor, partial curve] |  |
| CC(=O)C1C(=O)c2c(cccc2[N+](=O)[O-])C1=Nc1ccccc1C (stereo not given) |  | inactive: 1.72% |
| CCC(C)NC(=O)c1ccc(Cn2c(=O)c3cccn3c3cccnc32)cc1 (stereo not given) |  | inactive: -5.57% [at 76.3 µM] |
| Cn1c(-c2cccc(Br)c2)cnc1NCc1cccc(F)c1 | inconclusive: 22.4 µM [inhibitor, partial curve] |  |
| Oc1c(Br)cc(/C=N/Nc2nncc3ccccc23)cc1Br | inconclusive: 35.5 µM [activator, single point] |  |
| CCOC(=O)c1c(/N=C/C2C(=O)CCCC2=O)sc2c1CCCC2 | inconclusive: 14.1 µM [inhibitor, partial curve] |  |
| c1ccc2c(C3=NNC(=NC4CC4)SC3)c[nH]c2c1 |  | inactive: -0.838% |
| O=C(NC1CCCCC1)Oc1cc2oc(=O)sc2cc1Br | inconclusive: 35.5 µM [inhibitor, single point] |  |
| CNC(=S)NNC(=O)c1sc2cc(C(F)(F)F)cnc2c1-c1cccnc1 | inconclusive: 24.9 µM [inhibitor, partial curve] |  |
| Nc1nc(CN2CCCCCC2)nc(Nc2ccccc2)n1 |  | inactive: 10.3% |
| Clc1ccc(-c2nc3ncccn3c2Nc2ccc3c(c2)OCCO3)cc1 | inactive and inconclusive: 8.91 µM [inhibitor, partial curve] |  |
| CCOc1cc(C2C(C(=O)c3ccco3)=C(O)C(=O)N2CC2CCCO2)ccc1O (stereo not given) | inconclusive: 50.1 µM [inhibitor, single point] |  |
